Out of some 110,000 compounds screened, about 40 (0.04%) were called active. The shares of active, inactive and inconclusive entries below differ from those in the screen. Calls come from the whole dose curve; as a rule, active = well fitted curve in the direction sought with a large enough effect in the signal ratio (not every such curve was filed as active); inconclusive = small, poorly fitted or top-dose-only effect, or a change in a side signal; inactive = flat fitted curve, though single readings scatter; the % refers to the signal ratio. A potency beside an inconclusive call is a rough fit, not a confirmed value.
Experiment: IkB Signaling;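 for IkBa stabilization activation: 0% = basal untreated cells and 100% = reference inhibitor full response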
Settings: ABC-DLBCL IkBa-CBG/CBR dual luciferase ratio (green luciferase fused to IkBa over red control in OCI-Ly3 lymphoma cells), 4 h; IkBa stabilization activation: at 57.1 µM (top of the series), scaled: untreated 0%, proteasome inhibitor 100% unless noted
How it was run: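 Curves were fitted separately to fusion (green), unfused (red) and ratio luminescence, then classed by r2, magnitude and activity. Cells: OCI-Ly3, 4 h compound plus doxycycline at 37C; 10 uM MG-132 defined full response.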
Potency is the fitted concentration of half-maximal effect.

| SMILES | IkBa stabilization activation | Potency |
| --- | --- | --- |
| COc1ccc(N2CCN(CC(=O)Nc3nnc(-c4ccccc4)s3)CC2)cc1 | inconclusive: 5.46% [signal inhibitor] | – |
| COc1cc(-c2nnc(COc3ccc4ccccc4c3)o2)cc(OC)c1OC | inconclusive: -0.297% [signal inhibitor] | – |
| CC(=O)c1cccc(Nc2nc(-c3ccccc3Cl)nc3ccccc23)c1 | inconclusive: -1.32% [signal inhibitor] | – |
| CCOc1ccc2c(c1)sc1nc(C(=O)OC)cc(=O)n12 | inactive: -1.56% | – |
| Cc1cccc(OCCn2c(-c3ccc(Cl)cc3)nc3ccccc3c2=O)c1C | inactive: 0.275% | – |
| Cc1ccccc1Cn1c2ccccc2c2cnn(CC(=O)NCCc3ccc(Cl)cc3)c(=O)c21 | inconclusive: 3.87% [signal inhibitor] | – |
| O=C(c1ccncc1)N1CCC2(CC1)CN(c1ccccn1)C2 | inactive: -1.33% [at 11.4 µM, scaled: untreated 0%, proteasome inhibitor 100%] | – |
| Cc1ccc2[nH]c3c(=O)n(CC(=O)N4CCCC(C)C4)ncc3c2c1 (stereo not given) | inconclusive: -1.22% [signal inhibitor] | – |
| CC(CCCc1ccccc1)NC(=O)c1nn(-c2ccc(Cl)cc2)nc1CO (stereo not given) | inconclusive: 0.0463% [signal inhibitor] | – |
| CC(C)c1cccc(C(C)C)c1NS(=O)(=O)c1cccs1 | inactive: 0.479% | – |
| Cn1ncc(C#N)c1/N=C/N(Cc1ccccc1)Cc1ccccc1 | inconclusive: 3.2% [signal inhibitor] | – |
| Cc1cccc2sc(N(Cc3cccnc3)C(=O)COc3ccccc3)nc12 | inconclusive: 2.16% [signal inhibitor] | – |
| CCOc1ccccc1NC(=O)c1cc2c(=O)[nH]c3ccccc3c2s1 | – | inconclusive: 0.1 µM [signal inhibitor, full curve] |
| Cc1ccc(-n2[nH]c(C)c(C=Nc3ccc(C)cn3)c2=O)cc1 | inactive: 1.97% | – |
| Cc1ccc(-n2nnc3c(=O)n(CC(=O)OCc4ccccc4)cnc32)cc1 | inactive: -0.983% | – |
| N#CC1=C(N)Oc2n[nH]c(-c3ccc(F)cc3)c2C1c1ccncc1 (stereo not given) | inactive: 0.635% | – |
| Cc1noc(C)c1COC(=O)CCc1ccc(S(=O)(=O)N2CCCCC2)cc1 | inactive: 1.21% | – |
| O=C(NC1CCCCC1)c1ccc2c(c1)N(Cc1cccc(Cl)c1)C(=O)c1ccccc1S2=O (stereo not given) | inconclusive: 2.84% [signal inhibitor] | – |
| Cc1cc(C(=O)Nc2sc3c(c2C#N)CCCC3)no1 | inactive: -0.0277% | – |
| CCc1ccc(-c2nc(CSCC(=O)NCc3ccc(C)cc3)c(C)o2)cc1 | inconclusive: 0.781% [signal inhibitor] | – |
| O=C(Nc1cccnc1)c1cn(-c2ccccc2)nc1-c1cccs1 | inconclusive: 3.73% [signal inhibitor] | – |
| CC(=O)c1cc2c(cc1N/C(=N/S(=O)(=O)c1ccc(F)cc1)c1ccccc1)OCO2 | inactive: -0.306% | – |
| O=C(Cn1ncc2c3ccccc3n(Cc3cccc(Cl)c3)c2c1=O)N1CCCCCC1 | inconclusive: 1.38% [signal inhibitor] | – |
| CCOc1ccc(CCNC(=O)Cn2c(C)c3cnn(-c4ccccc4)c(=O)c3c2C)cc1 | inconclusive: 0.0822% [signal inhibitor] | – |

| SMILES | IkBa stabilization activation | Potency |
| --- | --- | --- |
| CCOc1ncccc1C(=O)Nc1cccc(C(=O)Nc2cccc(S(=O)(=O)CCO)c2)c1 | inconclusive: 0.994% [signal inhibitor] | – |
| O=C(NCc1ccco1)c1ccc2c(c1)N(Cc1cccc(Cl)c1)C(=O)c1ccccc1S2=O (stereo not given) | inactive: 1.18% | – |
| CCc1ccc(NC(=O)CC2C(=O)N(c3ccc(Cl)cc3)C(=O)N2C2CCCC2)cc1 (stereo not given) | inactive: -2.2% | – |
| N#CCCn1c(SCC(=O)c2c[nH]c3ccccc23)nc2ccccc21 | inconclusive: 1.69% [signal inhibitor] | – |
| Cc1ccc(-n2nnnc2SCc2nnc(-c3ccccc3Br)o2)cc1 | inconclusive: 3.72% [signal inhibitor] | – |
| CC(C)(C)OC(=O)N1CCC(c2c(C(=O)N3CCN(c4ncccn4)CC3)cnn2-c2cccc(F)c2)CC1 | inconclusive: 0.615% [signal inhibitor] | – |
| Cc1ccc(C)c(S(=O)(=O)c2nnn3c2nc(N2CCCCC2)c2sccc23)c1 | inconclusive: -0.331% [signal inhibitor] | – |
| COc1ccc(OC)c(NC(=O)Cn2cc(C(=O)c3ccc(Cl)cc3)c(=O)c3cc(OC)ccc32)c1 | inconclusive: 1.77% [signal inhibitor] | – |
| COc1ccc(C(=O)Nc2ccc(-c3cn4ccsc4n3)cc2)cc1S(=O)(=O)N1CCOCC1 | inactive: 1.77% | – |
| COc1cc2c(cc1OC)n(CC(=O)c1ccc(C)cc1)c(=O)n1nc(CCn3nc(C)cc3C)nc21 | inconclusive: -0.186% [signal inhibitor] | – |
| COc1ccc(NC(=O)c2ccc3c(c2)CCN3S(=O)(=O)c2ccccc2)cc1 | inconclusive: 0.503% [signal inhibitor] | – |
| Cc1ccc(-c2cc(C(=O)Nc3cccnc3)c3ccccc3n2)o1 | inactive: 22.2% | – |
| Cc1noc2ncnc(N3CCCC(C(=O)Nc4cccc(C(F)(F)F)c4)C3)c12 (stereo not given) | inconclusive: 4.42% [signal inhibitor] | – |
| CCc1ccc(NC(=O)c2ccc(F)c(S(=O)(=O)N3CCN(c4cc(C)ccc4C)CC3)c2)cc1 | inconclusive: 0.509% [signal inhibitor] | – |
| CC(C)c1ccc(NC(=O)Cn2c(=O)oc3cc(S(=O)(=O)N4CCCC4)ccc32)cc1 | inconclusive: -0.84% [signal inhibitor] | – |
| COc1ccc(-c2nc(S(=O)(=O)c3ccc(C)cc3)c(NCc3ccccc3)o2)cc1 | inconclusive: -0.444% [signal inhibitor] | – |
| CCc1c(C)c(C#N)c2nc3ccccc3n2c1Nc1cccc(C(F)(F)F)c1 | inconclusive: 8.82% [signal inhibitor] | – |
| COc1ccc(NC(=O)c2sc3nc4c(cc3c2N)CN(Cc2ccccc2)CC4)cc1OC | inactive: 0.433% | – |
| O=C1c2c(O)cc(O)cc2O[C@@H](c2ccc(O)c(O)c2)[C@H]1O | inactive: 1.64% | – |
| O=C(NCCCN1CCN(c2ccc(F)cc2)CC1)c1ccc2nc(CCc3ccccc3)oc2c1 | inconclusive: 3.8% [signal inhibitor] | – |
| COc1ccc2c(c1)CCc1c(C(=O)NCc3ccco3)noc1-2 | inactive: 2.42% | – |
| C=CCn1c(SCC(=O)/C(C#N)=C(\C)N)nc2sc(CC)cc2c1=O | inconclusive: 2% [signal inhibitor] | – |
| O=C(CCc1ccccc1)Nc1ccc(NC(=O)c2ccco2)cc1 | inactive: -1.38% | – |
| O=C(O)c1c2c(c(O)c3c1CN(C1CCCCC1)CO3)OCN(C1CCCCC1)C2 | inactive: -0.117% [at 11.4 µM, scaled: untreated 0%, proteasome inhibitor 100%] | – |

| SMILES | IkBa stabilization activation | Potency |
| --- | --- | --- |
| CCCOCc1cc(CN2CCN(c3ccccc3OC)CC2)c(O)c2ncccc12 | inconclusive: 8.83% [signal inhibitor] | – |
| O=C(NCc1ccc(Cl)cc1)c1cnc(N2CCOCC2)c2ccccc12 | inconclusive: -1.08% [signal inhibitor] | – |
| Cc1ccc(CSCCNC(=O)CN(c2cccc(C)c2C)S(=O)(=O)c2ccccc2)cc1 | inconclusive: 8.61% [signal inhibitor] | – |
| CC1CCCN(S(=O)(=O)c2cc(C(=O)NCCc3ccccc3)n(C)c2)C1 (stereo not given) | inconclusive: 1.76% [signal inhibitor] | – |
| COc1ccc(OC)c(S(=O)(=O)n2ccnc2)c1 | inactive: -1.83% | – |
| COc1ccc(CNC(=O)c2ccc3c(c2)CCN3S(=O)(=O)c2ccccc2)cc1 | inconclusive: -0.424% [signal inhibitor] | – |
| COc1ccc(N2CCN(c3nc4ccccc4n4c(C)nnc34)CC2)cc1 | inconclusive: 0.254% [signal inhibitor] | – |
| CCOC(=O)c1ccc(NC(=O)c2cc(S(=O)(=O)N3CCOCC3)ccc2O)cc1 | inconclusive: 2.53% [signal inhibitor] | – |
| O=C(CCCSc1nc(-c2ccco2)cc(C(F)(F)F)n1)NCc1cccs1 | inconclusive: -1.42% [signal inhibitor] | – |
| CCOc1ccc(C(=O)Nc2ccc3nc4c(c(Nc5ccccc5OC)c3c2)CCCC4)cc1 | inconclusive: -2.1% [signal inhibitor] | – |
| O=C(Nc1nc(-c2ccc(S(=O)(=O)N3CCCCCC3)cc2)cs1)c1cccs1 | inconclusive: 6.22% [signal inhibitor] | – |
| O=C(CC1N=C2c3ccccc3N=C(SCC(=O)Nc3ccccc3F)N2C1=O)NCc1ccc2c(c1)OCO2 (stereo not given) | inconclusive: 0.668% [signal inhibitor] | – |
| CCOc1ccc(N(CC(=O)NCc2cccs2)S(=O)(=O)c2c(C)noc2C)cc1 | inactive: 0.434% | – |
| CN(C(=O)CSc1nc2ccccc2[nH]1)c1ccc(F)cc1 | inactive: 0.117% | – |
| Cc1cc(O)c(-c2n[nH]c3c2C(c2cccc(O)c2)N(Cc2cccnc2)C3=O)cc1Cl (stereo not given) | inconclusive: 5.93% [signal inhibitor] | – |
| COc1ccc(C2N3CC4(C)CN2CC(C)(C3)C4O)cc1 (stereo not given) | inactive: -2.5% | – |
| Cc1ccc(CSc2nncn3c2cc2sccc23)cc1 | inactive: -1.37% | – |
| COc1cc(OC)c(NC(=O)C(C)n2nc(-c3ccc(C)cc3)c3c(c2=O)CCCC3)cc1Cl (stereo not given) | inconclusive: 0.906% [signal inhibitor] | – |
| N#Cc1ccccc1NC(=O)C(=O)NCC(c1cccnc1)N1CCc2ccccc21 (stereo not given) | inconclusive: 4.9% [signal inhibitor] | – |
| c1ccc(-n2ncc(-c3nn[nH]n3)n2)cc1 | – | inconclusive: 31.6 µM [rising, partial curve] |
| COC(=O)c1ccc(NC(=O)CSc2nc3cc4ccccc4cc3[nH]2)cc1 | – | inconclusive: 7.94 µM [signal inhibitor] |
| CCOC(=O)CC(NC(=O)CCc1c(C)nc2cc(-c3ccccc3)nn2c1C)c1ccc(C)cc1 (stereo not given) | – | inconclusive: 7.94 µM [signal inhibitor] |
